Data on 9 molecules can be found in PMC9911399, “Two distinct binding modes provide the RNA-binding protein RbFox with extraordinary sequence specificity”.

T1: RBFOX1 RRM RbFoxmut (Fox-RRM*) (Homo sapiens, UniProt Q9NWB1 109-208, R118D;E147R;N151S;E152T)
T1 sequence: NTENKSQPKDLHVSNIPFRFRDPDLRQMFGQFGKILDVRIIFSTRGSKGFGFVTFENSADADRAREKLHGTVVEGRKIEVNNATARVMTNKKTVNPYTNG

B1: GGUCUGA (DNA:RNA)
RNA: GGGAGACCGGAAUUCAGAUUGUCCGGUCUGAUUAAAUCCCGUCGUAGCCACCA
DNA 1: CAATCTGAATTCCGGTCTCCC
DNA 2: TGGTGGCTACGACGGGATT
B2: GUCUCUA (DNA:RNA)
RNA: B1 RNA with G26U, U27C, C28U, U29C, G30U
DNA 1: CAATCTGAATTCCGGTCTCCC
DNA 2: TGGTGGCTACGACGGGATT
B3: AUCCCCG (DNA:RNA)
RNA: B1 RNA with G25A, G26U, U27C, U29C, G30C, A31G
DNA 1: CAATCTGAATTCCGGTCTCCC
DNA 2: TGGTGGCTACGACGGGATT
B4: UAUCCUA (DNA:RNA)
RNA: B1 RNA with G25U, G26A, U29C, G30U
DNA 1: CAATCTGAATTCCGGTCTCCC
DNA 2: TGGTGGCTACGACGGGATT
B5: GUUUUCA (DNA:RNA)
RNA: B1 RNA with G26U, C28U, G30C
DNA 1: CAATCTGAATTCCGGTCTCCC
DNA 2: TGGTGGCTACGACGGGATT
B6: AAUACAA (DNA:RNA)
RNA: B1 RNA with G25A, G26A, C28A, U29C, G30A
DNA 1: CAATCTGAATTCCGGTCTCCC
DNA 2: TGGTGGCTACGACGGGATT
B7: CCUCAGU (DNA:RNA)
RNA: B1 RNA with G25C, G26C, U29A, A31U
DNA 1: CAATCTGAATTCCGGTCTCCC
DNA 2: TGGTGGCTACGACGGGATT
B8: AUUCUGG (DNA:RNA)
RNA: B1 RNA with G25A, G26U, A31G
DNA 1: CAATCTGAATTCCGGTCTCCC
DNA 2: TGGTGGCTACGACGGGATT
B9: AUAACCA (DNA:RNA)
RNA: B1 RNA with G25A, G26U, U27A, C28A, U29C, G30C
DNA 1: CAATCTGAATTCCGGTCTCCC
DNA 2: TGGTGGCTACGACGGGATT

Where a chain is given by its changes, count along the chain named. The list shows a part of the results.

The assay has as its target T1, RBFOX1 RRM RbFoxmut (Fox-RRM*). As to the kind of experiment: EMSA; HiTS-Eq, 1 nM pool, 10 min; buffer printed only for the single-RNA assays: 10 mM Tris pH 7.5, 150 mM NaCl, 3.4 mM EDTA, 0.001% NP-40, 30 C. The conditions noted are these: tags: His6 N-terminal (pET28a); label: 5' 32P. The essentials: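 A pool of RNA with 7 randomized nucleotides, 5′-radiolabelled and with DNA-annealed flanks, was equilibrated at 1 nM for 10 min in 50 µL with purified RbFox RRM, wild type or mutant, across increasing protein concentrations. Free RNA was separated by 8% native PAGE, excised, reverse-transcribed, barcoded by PCR and sequenced. Relative association constants were obtained from read-count changes of each RNA species versus the control reaction and normalised to the cognate motif.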
Regarding B1, the binding signal was 0.293 KA relative to UGCAUGU. To B2 belongs 0.122 KA relative to UGCAUGU; to B3, 0.0853 KA relative to UGCAUGU; to B4, 0.128 KA relative to UGCAUGU.

On to B5, for which the binding signal was 0.0853 KA relative to UGCAUGU. In the case of B6, the binding signal is 0.0807 KA relative to UGCAUGU.

On to B7, for which the binding signal is 0.0814 KA relative to UGCAUGU. As for B8, the binding signal is 0.0721 KA relative to UGCAUGU. For B9, the binding signal is 0.142 KA relative to UGCAUGU.
